Laboratory results published in paper PMC4336329 (PLoS ONE, 2015).
Screen size: about 310,000 compounds; about 14,000 (4.5%) showed an effect of 50% or more. The effect is printed as a negative number. This is one part of the list.

biological target: human ether-à-go-go-related gene (hERG) potassium channel (human, UniProt Q12809); assay: primary screen, population patch clamp on CHO cells stably expressing hERG
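Also: peak tail current of the secondary pulse compared with the same well before compound.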

Chain of human ether-à-go-go-related gene (hERG) potassium channel (Q12809 whole entry, looked up): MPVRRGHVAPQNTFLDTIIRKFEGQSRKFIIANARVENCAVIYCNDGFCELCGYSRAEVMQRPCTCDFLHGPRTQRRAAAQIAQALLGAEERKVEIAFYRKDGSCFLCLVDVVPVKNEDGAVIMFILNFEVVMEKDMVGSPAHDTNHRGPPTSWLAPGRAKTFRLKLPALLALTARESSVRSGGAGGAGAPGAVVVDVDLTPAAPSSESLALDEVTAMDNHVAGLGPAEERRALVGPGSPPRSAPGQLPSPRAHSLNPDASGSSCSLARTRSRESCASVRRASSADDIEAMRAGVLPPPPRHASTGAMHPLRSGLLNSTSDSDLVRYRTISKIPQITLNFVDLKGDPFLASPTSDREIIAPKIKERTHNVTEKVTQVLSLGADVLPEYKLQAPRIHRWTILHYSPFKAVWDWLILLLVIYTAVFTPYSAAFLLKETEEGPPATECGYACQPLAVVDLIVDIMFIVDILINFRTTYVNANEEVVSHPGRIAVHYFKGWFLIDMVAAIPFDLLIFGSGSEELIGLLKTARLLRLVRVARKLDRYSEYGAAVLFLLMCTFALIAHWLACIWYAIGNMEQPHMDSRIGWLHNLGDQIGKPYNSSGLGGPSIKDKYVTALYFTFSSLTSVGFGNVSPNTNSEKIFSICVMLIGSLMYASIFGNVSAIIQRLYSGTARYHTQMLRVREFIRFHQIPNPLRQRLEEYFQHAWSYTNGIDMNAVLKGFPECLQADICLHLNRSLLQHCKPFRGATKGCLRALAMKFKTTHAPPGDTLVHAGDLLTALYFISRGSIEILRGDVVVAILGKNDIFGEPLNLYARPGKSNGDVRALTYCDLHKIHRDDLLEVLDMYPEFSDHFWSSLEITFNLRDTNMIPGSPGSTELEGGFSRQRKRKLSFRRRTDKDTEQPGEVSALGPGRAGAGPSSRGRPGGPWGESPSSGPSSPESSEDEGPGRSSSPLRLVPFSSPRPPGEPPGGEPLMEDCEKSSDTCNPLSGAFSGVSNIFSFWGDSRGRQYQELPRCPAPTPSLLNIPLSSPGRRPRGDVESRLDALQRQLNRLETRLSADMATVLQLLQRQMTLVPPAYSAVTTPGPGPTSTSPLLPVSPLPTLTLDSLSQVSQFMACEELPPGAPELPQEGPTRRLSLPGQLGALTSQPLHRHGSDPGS

Structure (SMILES) | hERG current change (%, negative = inhibition) at 10uM [%]
N#Cc1c(-n2cccc2/C=N/O)sc2c1CCCC2 | -31.2
CC(C)c1ccc(NC(=O)C2CCCCN2S(=O)(=O)c2ccccc2)cc1 (stereo not shown) | -18
O=S(=O)(NCc1ccccn1)c1cccc2nsnc12 | 7.17
CCOC(=O)c1c(N)sc(C(=O)N2CCCC(C(N)=O)C2)c1C (stereo not shown) | 12.2
O=C(CCN1C(=O)c2ccccc2C1=O)NCCN1CCOCC1 | 20.1
CCc1ccc(CCOc2ccc(CC3SC(=O)NC3=O)cc2)nc1.Cl (stereo not shown) | 4.26
CC(C)Oc1ccc(CCc2n[nH]c(=S)n2-c2ccccc2)cc1 | 10.8
COc1ccc(NC(=O)c2cc(-c3ccc(OC)c(OC)c3)on2)cc1OC | 5.03
COC(=O)NCC(c1ccc2c(c1)OCO2)N1CCN(c2ccccc2)CC1 (stereo not shown) | -14.9
O=C1OC(N2C(=O)CC[C@H]2C(=O)Nc2cccc(F)c2)c2ccccc21 (stereo partly shown) | 9.13
CSc1nc(Oc2ccc(=O)[nH]n2)nc(N(C)C)n1 | 12.9
CCCc1ccc(C(=O)COC(=O)CN2C(=O)NC3(CCCCC3C)C2=O)cc1 (stereo not shown) | 3.91
O=C(O)CC/C(=C\c1cc2c(cc1Br)OCO2)c1nc2ccccc2s1 | 16.5
CC1CCN(c2nc3ccc(C(=O)O)cc3s2)CC1 | 22.8
CCOC(=O)C1CCCN(CC(=O)Nc2c(F)c(F)c(F)c(F)c2F)C1 (stereo not shown) | -6.2
COCCCNCCOc1ccc(C)cc1[N+](=O)[O-].O=C(O)C(=O)O | -18.7
O=C(CNc1cccc(S(=O)(=O)N2CCCCC2)c1)Nc1cccc(F)c1 | -9.9
CCc1ccc(NC(=S)N(CCN2CCOCC2)Cc2ccccc2F)cc1 | -24.5
COc1cc(/C=N/NC(=O)c2ccc(Cl)c(S(N)(=O)=O)c2)ccc1OCC(N)=O | 9.92
COc1cccc(/C=C2\N=C3CCCCCN3C2=O)c1 | 1.51
O=C(NCc1ccco1)c1nc(-c2ccc(F)cc2)no1 | -13.3
Cc1cc(C(=O)O)c(C)n1-c1ccccc1 | 2.95
CCC(C(=O)OCC(=O)Nc1c(Cl)cccc1Cl)c1ccccc1 (stereo not shown) | 6.64

Structure (SMILES) | hERG current change (%, negative = inhibition) at 10uM [%]
COC(=O)c1ccc(CNC(=O)c2ccc3oc(C(C)C)nc3c2)cc1 | 17.8
CC(C)CNC(=O)COC(=O)c1cc(Cl)cc(Cl)c1N | -11.3
Cc1ccccc1C(=O)NNC1=NCCC1 | -0.11
CCCN(CCC)C(=O)CSc1nc2ccccc2c(=O)n1CC1COc2ccccc2O1 (stereo not shown) | -19
CCOc1cc(N2CCOCC2)c(OCC)cc1NC(=O)c1ccc(S(C)(=O)=O)cc1 | 9.89
CCC(=O)Nc1nc2ccccc2n1CCN(CC)CC | -14.1
Cc1[nH]c2c(Cl)cccc2c(=O)c1CN1CCCCCC1 | -32.7
CC(NC(=O)c1cccc(S(=O)(=O)N2CCc3ccccc32)c1)c1ccco1 (stereo not shown) | -48
O=C(CCc1nnc2ccc(NCc3ccco3)nn12)N1CCN(c2ccccc2)CC1 | -56.3
Cn1c(-c2ccc3c(c2)OCO3)cnc1NCc1ccccc1.O=C(O)C(=O)O | -60
COc1ccccc1/C=N/NC(=O)c1cccc(NC(=O)c2ccccc2Cl)c1 | -8.31
O=C1/C(=C/c2ccccc2F)SC(=S)N1CC(=O)N1CCCCC1c1cccnc1 (stereo not shown) | 1.73
CCn1c(CN2CCOCC2)nnc1SCC(=O)Nc1ccc(C)cc1 | 12.4
Cn1nc(C(F)(F)F)c(C(=O)Nc2ccc(F)cc2F)c1Cl | 5.9
CC12CCC(=O)N1C(C(=O)NCc1ccccc1Cl)CS2 (stereo not shown) | -9.42
Cc1ccc(N(C(=O)C2CCC(=O)N2)C2(C(=O)NC3CCCC3)CCCCC2)cc1 (stereo not shown) | 0.218
CNC(=O)COC(=O)/C=C/c1nc2ccccc2s1 | 13.1
OCCC1CN(CC2CCCCC2)CCN1C1CCCC1 (stereo not shown) | -20.2
Cc1ccc(S(=O)(=O)N2CCOCC2)cc1C(=O)NCc1ccc(F)cc1 | -19.3
Cc1nc(C(F)(F)F)c(C(=O)N=CN(C)C)s1 | 19.4
C(=N\Nc1nc2ccccc2s1)/c1ccc2c(c1)OCO2 | 6.22
O=c1c2ccccc2nc(-c2ccccc2)n1-c1cccc(O)c1 | 4.12
O=C(O)C(=O)O.O=C(c1cccc2ccccc12)N1CCN(CC2CC=CCC2)CC1 (stereo not shown) | -14.8

Structure (SMILES) | hERG current change (%, negative = inhibition) at 10uM [%]
COC(=O)c1ccc(NC(=S)NC(=O)c2c(Cl)cnn2C)cc1 | 26.2
O=C(NCC(=O)N1CCN(C(=O)c2ccccc2)CC1)c1ccccc1 | 5.05
Cc1csc(C(=O)NN)c1N(C)C | 16.4
Cl.NC1(C(=O)O)CC1 | 19.8
COc1ccc(/C=N/NC(=O)c2ccccc2O)cc1CN1CCOCC1 | -12.8
O=C(NCc1ccc(OC(F)(F)F)cc1)C1CC(c2ccccc2C(F)(F)F)=NO1 (stereo not shown) | -11.6
O=C(CSc1ccc2c(c1)OCCO2)Nc1cccnc1 | 19.4
O=C(COC(=O)c1c[nH]c(=O)[nH]c1=O)Nc1ccccc1F | 15.6
CCCCNS(=O)(=O)c1ccc(OC)c2ncccc12 | -3.77
c1ccc2[nH]c(CSc3nccs3)nc2c1 | -6.76
CCc1nnc(NC(=O)CSc2nnc(-c3ccco3)n2C)s1 | 10.1
CCN1CCCC1CNC(=O)c1cc2c(OC)c(OC)c(OC)cc2[nH]1 (stereo not shown) | 23.2
Cc1ccc(/C=N/NC(=O)Cc2ccc(Cl)cc2)c(O)c1 | 3.53
CC(C)(C)c1ccc(C(CC(=O)O)NC(=O)Cc2ccc(F)cc2)cc1 (stereo not shown) | 17.3
O=[N+]([O-])c1ccc(Nc2nc(N/N=C/c3cccc(F)c3)nc(N3CCCC3)n2)cc1 | -1.42
CC(C)(C)C1CCC(=NNC(=O)c2ccc(Br)o2)CC1 (stereo not shown) | 9.16
CN1C(=O)NC(c2ccccc2Cl)C2=C1CC(C)(C)CC2=O (stereo not shown) | 5.71
O=C(NC12CC3CC(CC(C3)C1)C2)C12CC3CC(C1)CC(n1cnc(Cl)n1)(C3)C2 | 2.42
COc1ccccc1CNC(=O)COC(=O)c1ccc2c(=O)n3c(nc2c1)CCCCC3 | -2.3
Cc1ccc(S(=O)(=O)N2[C@@H](c3cccc(Cl)c3)C(C(=O)O)=CC[C@H]2c2ccc(Cl)cc2)cc1 | 17.6
COc1ccccc1OCc1ccc(C(=O)N(C)C)o1 | 13.4
COc1ccc(NC(C)=O)cc1S(=O)(=O)Nc1ccc2c(c1)OCCO2 | 10.4
CC1OC2(OC1C)C(=O)Nc1ccccc12 (stereo not shown) | 3

Structure (SMILES) | hERG current change (%, negative = inhibition) at 10uM [%]
CCO[C@@H]1OC(C(=O)NCc2nc3ccccc3[nH]2)=C[C@H](c2ccc(C(F)(F)F)cc2)[C@H]1CCCO | -3.34
Cc1nnc(-c2ccccc2)nc1N(C)C | -5.86
COc1ccc(C(=O)N(CC(=O)Nc2sc(C)c(C)c2C(N)=O)C2CCCC2)cc1 | -3.88
CCc1ccccc1NC(=O)CSc1nc2ccccc2n1CC(=O)N1CCCC1 | 4.01
CCOc1ccccc1NC(=O)C1CCCN(C(=O)Nc2ccccc2)C1 (stereo not shown) | -1.4
N#CC(=C1CCCC1)c1nc(-c2ccccc2O)cs1 | 2.45
CCSc1nnc2c(n1)OC1(CCCC1)Nc1ccccc1-2 | 2.61
CNC(=O)N1CCN(C(=O)NC)CC1 | 10.8
CC(C)C[C@H]1COCCS(=O)(=O)N1Cc1ccc(Cl)c(Cl)c1 | -2.04
O=C(NCCS(=O)(=O)N1CCN(c2ccccc2F)CC1)c1ccc2c(c1)OCO2 | 11.2
CS(=O)(=O)N1CCC(Oc2ccccc2C(=O)N2CCN(CC3CC3)CC2)CC1 | 20.2
CN(C)C(=S)NC(=O)C12CC3(C)CC(C)(CC(C)(C3)C1)C2 | 17.4
O=C(Nc1nc(-c2nc3ccccc3s2)cs1)C1COc2ccccc2O1 (stereo not shown) | 5.47
COc1ccc(/C(C)=C2/SC(=S)N(CCC(=O)O)C2=O)cc1 | 8.29
O=C1C(=O)N(Cc2ccccc2)C(c2cccc(O)c2)/C1=C(\O)c1ccc2c(c1)OCCO2 (stereo not shown) | 5.96
O=C(CSc1nc2c(c(=O)n1-c1ccccc1)SCC2)N1CCOCC1 | 5.25
Cc1cccc(NS(=O)(=O)c2c(C)[nH]c(C)c2C(=O)N2CCCC2)c1 | 14
COc1ccc([N+](=O)[O-])cc1NC(=S)Nc1ccccc1 | -31.5
COc1ccc(C2NC(Cc3ccccc3)(C(=O)O)C3C(=O)N(c4ccccc4OC)C(=O)C23)cc1 (stereo not shown) | 11.6
COCCCNC(=O)/C(C#N)=c1\s/c(=C\c2ccccc2OC(F)F)c(=O)n1CCCOC | 13.7
O=C1Nc2ccc(S(=O)(=O)N3CCOCC3)c3cccc1c23 | 1.48
Cc1cc([N+](=O)[O-])nn1CC(=O)Nc1c(C)n(C)n(-c2ccccc2)c1=O | 18.4
